In PubChem BioAssay (NCI):
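All cell lines were grown in 96-well plates and treated with compound for 48 hours. The concentration for 50% growth inhibition is given as GI50. TGI marks complete inhibition of growth.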

What follows are compounds tested on NCI-H322M lung (assay: NCI anticancer screen, dose series, 48 h).

SMILES | GI50 | TGI
COc1ccc(-n2c(SCC(=O)Nc3ccc(-c4nc5ccccc5[nH]4)cc3)nc3ccccc3c2=O)cc1 | 17 µM | 58.8 µM
COc1ccc(C(=O)Nc2ncc(Cc3ccccc3Cl)s2)cc1 | 1 µM | 41 µM
O=C1[C@H]2Cc3c([nH]c4ccccc34)[C@@H](c3ccc(Br)cc3)N2C(=O)CN1C1CCN(CC2CCCCC2)CC1 | 16.8 µM | 32.7 µM
N/C(=N\c1nc2c(Cl)cc(Cl)cc2s1)C(Cl)(Cl)Cl | 3.09 µM | 12.8 µM
